From the supplement of paper PMC9151546
Where a name gives a salt, the structure may show the parent alone. Most values come without repeats; read them as rough.

Experiments:
CHO-K1 [1] = experiment: hypodiploid nuclei frequency (% of nucleated events); higher = more hypodiploid events (aneugenic)
Procedure: (§1)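 Flow-cytometric in vitro micronucleus assay (Litron MicroFlow) in CHO-K1 cells in 96-well plates, 19 concentrations (4.5-200 µM, n=1 per concentration). Without S9, cells were exposed for 24 h and sampled at 48 h. With Aroclor 1254-induced rat liver S9, cells were exposed for 3-4 h and sampled at 27-28 h. Read-outs are %MN and %hypodiploid nuclei relative to nucleated events, and relative survival as the nuclei-to-bead ratio versus the 1% DMSO vehicle control (x100).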

CHO-K1 [2] = experiment: micronucleus frequency (% of nucleated events); higher = more micronuclei (genotoxic)
CHO-K1 [3] = experiment: relative survival (nuclei to bead ratio vs DMSO control) (% of vehicle control); higher = more surviving cells
Procedure: as §1
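Wherever hypodiploid nuclei frequency (% of nucleated events) is given: hypodiploid nuclei gated on a flow cytometer with 488 nm excitation after SYTOX Green staining, cultures at 37 °C, positive controls vinblastine without S9 and cyclophosphamide with S9.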
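Wherever micronucleus frequency (% of nucleated events) is given: cells lysed with nuclei stained by SYTOX Green, then micronucleus-gated events counted against nucleated events by flow cytometry with 488 nm excitation.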
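Wherever relative survival (nuclei to bead ratio vs DMSO control) is given: Lysed-cell nuclei stained with SYTOX Green and counted against counting beads by flow cytometry at 488 nm excitation, with vinblastine (no S9) and cyclophosphamide (plus S9) as positive controls.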

CCCCc1oc2ccccc2c1C(=O)c1cc(I)c(OCCN(CC)CC)c(I)c1 [Amiodarone hydrochloride]
Settings	hypodiploid nuclei frequency, CHO-K1 [1] [%]	micronucleus frequency, CHO-K1 [2] [%]	relative survival, CHO-K1 [3]
concentration: 3.4 (µM), S9 metabolic activation: with S9, exposure time: 3-4 hours	0.52	1.66	89.8
concentration: 3.4 (µM), S9 metabolic activation: without S9, exposure time: 24 hours	66.8	3.1	60.2
concentration: 4.25 (µM), S9 metabolic activation: with S9, exposure time: 3-4 hours	0.34	2.22	90
concentration: 4.25 (µM), S9 metabolic activation: without S9, exposure time: 24 hours	5.88	2.12	89.8
concentration: 5.31 (µM), S9 metabolic activation: with S9, exposure time: 3-4 hours	0.56	2.1	92.5
concentration: 5.31 (µM), S9 metabolic activation: without S9, exposure time: 24 hours	1.02	2.4	104
concentration: 6.64 (µM), S9 metabolic activation: with S9, exposure time: 3-4 hours	0.76	1.54	88
concentration: 6.64 (µM), S9 metabolic activation: without S9, exposure time: 24 hours	0.94	2.32	90.1
concentration: 8.3 (µM), S9 metabolic activation: with S9, exposure time: 3-4 hours	0.6	1.88	102
concentration: 8.3 (µM), S9 metabolic activation: without S9, exposure time: 24 hours	0.98	2.36	83.9
concentration: 10.4 (µM), S9 metabolic activation: with S9, exposure time: 3-4 hours	0.48	1.62	97.2
concentration: 10.4 (µM), S9 metabolic activation: without S9, exposure time: 24 hours	0.94	1.6	109
concentration: 13 (µM), S9 metabolic activation: with S9, exposure time: 3-4 hours	0.56	1.98	93
concentration: 13 (µM), S9 metabolic activation: without S9, exposure time: 24 hours	1.32	1.6	96.5
concentration: 16.2 (µM), S9 metabolic activation: with S9, exposure time: 3-4 hours	1.04	2.26	92
concentration: 16.2 (µM), S9 metabolic activation: without S9, exposure time: 24 hours	0.94	2.42	77.9
concentration: 20.3 (µM), S9 metabolic activation: with S9, exposure time: 3-4 hours	2.78	3.1	88.4
concentration: 20.3 (µM), S9 metabolic activation: without S9, exposure time: 24 hours	1.3	2.34	87.5
concentration: 25.3 (µM), S9 metabolic activation: with S9, exposure time: 3-4 hours	3.32	3.8	87.7
concentration: 25.3 (µM), S9 metabolic activation: without S9, exposure time: 24 hours	0.82	1.82	67.2
concentration: 31.7 (µM), S9 metabolic activation: with S9, exposure time: 3-4 hours	3.6	4.26	71.1
concentration: 31.7 (µM), S9 metabolic activation: without S9, exposure time: 24 hours	0.78	1.58	68.1
concentration: 39.6 (µM), S9 metabolic activation: with S9, exposure time: 3-4 hours	7.84	6.08	56.8
concentration: 39.6 (µM), S9 metabolic activation: without S9, exposure time: 24 hours	–	–	34.8
concentration: 49.5 (µM), S9 metabolic activation: with S9, exposure time: 3-4 hours	10.4	8.16	45.2
concentration: 49.5 (µM), S9 metabolic activation: without S9, exposure time: 24 hours	–	–	22.7
concentration: 61.8 (µM), S9 metabolic activation: with S9, exposure time: 3-4 hours	–	–	38.8
concentration: 61.8 (µM), S9 metabolic activation: without S9, exposure time: 24 hours	–	–	2.66
concentration: 77.3 (µM), S9 metabolic activation: with S9, exposure time: 3-4 hours	–	–	31.8
concentration: 77.3 (µM), S9 metabolic activation: without S9, exposure time: 24 hours	–	–	0.01
concentration: 96.6 (µM), S9 metabolic activation: with S9, exposure time: 3-4 hours	–	–	19
concentration: 96.6 (µM), S9 metabolic activation: without S9, exposure time: 24 hours	–	–	0.02
concentration: 121 (µM), S9 metabolic activation: with S9, exposure time: 3-4 hours	–	–	6.42
concentration: 121 (µM), S9 metabolic activation: without S9, exposure time: 24 hours	–	–	0.02
concentration: 151 (µM), S9 metabolic activation: without S9, exposure time: 24 hours	–	–	0.01

O=C1c2c(O)cccc2Cc2cccc(O)c21 [Anthralin]
Settings	hypodiploid nuclei frequency, CHO-K1 [1] [%]	micronucleus frequency, CHO-K1 [2] [%]	relative survival, CHO-K1 [3]
concentration: 4.5 (µM), S9 metabolic activation: with S9, exposure time: 3-4 hours	0.5	1.44	133
concentration: 4.5 (µM), S9 metabolic activation: without S9, exposure time: 24 hours	1.14	2.12	115
concentration: 5.63 (µM), S9 metabolic activation: with S9, exposure time: 3-4 hours	0.52	1.5	135
concentration: 5.63 (µM), S9 metabolic activation: without S9, exposure time: 24 hours	0.72	2.98	92.3
concentration: 7.04 (µM), S9 metabolic activation: with S9, exposure time: 3-4 hours	0.22	1.42	138
concentration: 7.04 (µM), S9 metabolic activation: without S9, exposure time: 24 hours	1.08	1.72	103
concentration: 8.8 (µM), S9 metabolic activation: with S9, exposure time: 3-4 hours	0.22	0.94	116
concentration: 8.8 (µM), S9 metabolic activation: without S9, exposure time: 24 hours	0.88	2.34	108
concentration: 11 (µM), S9 metabolic activation: with S9, exposure time: 3-4 hours	0.38	1.44	113
concentration: 11 (µM), S9 metabolic activation: without S9, exposure time: 24 hours	0.82	2.14	107
concentration: 13.7 (µM), S9 metabolic activation: with S9, exposure time: 3-4 hours	0.34	0.76	118
concentration: 13.7 (µM), S9 metabolic activation: without S9, exposure time: 24 hours	1.06	2.06	98.7
concentration: 17.2 (µM), S9 metabolic activation: with S9, exposure time: 3-4 hours	0.3	1.04	119
concentration: 17.2 (µM), S9 metabolic activation: without S9, exposure time: 24 hours	0.86	1.76	102
concentration: 21.5 (µM), S9 metabolic activation: with S9, exposure time: 3-4 hours	0.32	0.9	101
concentration: 21.5 (µM), S9 metabolic activation: without S9, exposure time: 24 hours	0.88	1.98	103
concentration: 26.8 (µM), S9 metabolic activation: with S9, exposure time: 3-4 hours	0.44	1.58	126
concentration: 26.8 (µM), S9 metabolic activation: without S9, exposure time: 24 hours	1.34	2.92	83.1
concentration: 33.6 (µM), S9 metabolic activation: with S9, exposure time: 3-4 hours	0.42	1.6	146
concentration: 33.6 (µM), S9 metabolic activation: without S9, exposure time: 24 hours	1.62	1.82	83.5
concentration: 41.9 (µM), S9 metabolic activation: with S9, exposure time: 3-4 hours	0.48	1.68	158
concentration: 41.9 (µM), S9 metabolic activation: without S9, exposure time: 24 hours	1.22	2.74	109
concentration: 52.4 (µM), S9 metabolic activation: with S9, exposure time: 3-4 hours	0.32	1.4	160
concentration: 52.4 (µM), S9 metabolic activation: without S9, exposure time: 24 hours	1.26	2.36	117
concentration: 65.5 (µM), S9 metabolic activation: with S9, exposure time: 3-4 hours	0.26	1.28	129
concentration: 65.5 (µM), S9 metabolic activation: without S9, exposure time: 24 hours	1.42	2.74	104
concentration: 81.9 (µM), S9 metabolic activation: with S9, exposure time: 3-4 hours	0.3	0.7	126
concentration: 81.9 (µM), S9 metabolic activation: without S9, exposure time: 24 hours	1.22	2.06	80.1
concentration: 102 (µM), S9 metabolic activation: with S9, exposure time: 3-4 hours	0.28	1.38	110
concentration: 102 (µM), S9 metabolic activation: without S9, exposure time: 24 hours	1.64	2.7	84.9
concentration: 128 (µM), S9 metabolic activation: with S9, exposure time: 3-4 hours	0.22	1	110
concentration: 128 (µM), S9 metabolic activation: without S9, exposure time: 24 hours	1.84	2.78	92.9
concentration: 160 (µM), S9 metabolic activation: with S9, exposure time: 3-4 hours	0.22	1	117
concentration: 160 (µM), S9 metabolic activation: without S9, exposure time: 24 hours	1.8	3.26	83.1
concentration: 200 (µM), S9 metabolic activation: with S9, exposure time: 3-4 hours	0.32	1.1	111
concentration: 200 (µM), S9 metabolic activation: without S9, exposure time: 24 hours	2	3.8	80.5
